Consider one compound from patent US20240299401A1, “NOVEL REDOX-BASED THERAPEUTIC APPROACH FOR TREATMENT OF CANCER” (THE PENN STATE RESEARCH FOUNDATION, priority 2020, published 2024).

This assay has as its system NFE2L2. The assay is described as follows: NFE2L2 reporter assay in MCF7 cells. The settings on record: increasing doses, 6 and 24 h. (In general: Reporter assays use an easily measured gene product as a stand-in for the process of interest.)

Take `c1ccc([Se][Se]c2ccccc2)cc1` [Diphenyl diselenide, diphenyl diselenide]: the “NFE2L2 activity and extracellular reduced thiols” value is listed as “dose-dependent increase”.
